# Assay results as given in article PMC12136788.
# The list shows a part of the results.
# T1: UNK ZnF1-3 (human, UniProt Q9C0B0 31-174)
# T1 sequence: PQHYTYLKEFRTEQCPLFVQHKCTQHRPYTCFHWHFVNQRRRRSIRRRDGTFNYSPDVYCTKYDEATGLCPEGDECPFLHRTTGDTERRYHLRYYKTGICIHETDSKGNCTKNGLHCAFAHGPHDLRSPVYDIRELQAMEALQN
# B1: chr1:151372964:151372965:+_ENSG00000159377_ENST00000290541|hu_hu|motif|central (ssRNA)
# RNA: GGGAGUUCUACAGUCCGACGAUCCUUCGAGCGCCGGCUGUACAUGGCCCUGGUCAGCCAUGAAUGAAUAGCUCUAGGACGGUAGCUGUGUCCAUCUCCCAGAAGCUCCUCAUCAAUCACCAUCUGGCCGAGAACUUGCUUCAACAACAGAGGAUUGAGCAUCA
# B2: chr5:93601047:93601048:+_ENSMUSG00000058013_ENSMUST00000074733|mus_hu|FALSE|FALSE (ssRNA)
# RNA: GGGAGUUCUACAGUCCGACGAUCCAUGAUCCAACCUUUAAGACCUCUAUCUGUGAGAGGAUCAAGGAUGCACCAGUAAAUGUGAACUAAUCAUAGUUUUCUCAUACCAGUCUACUCCAACUUGGCCAGGAUUGAAGGCAGGCACAACAGAGGAUUGAGCAUCA
# B3: chr1:193054138:193054139:+_ENSG00000116747_ENST00000432079|hu_mus|motif|central (ssRNA)
# RNA: GGGAGUUCUACAGUCCGACGAUCUUAUACUCUGUAUCACACUUUCAGAACAAAGGUGUGAUUCAGUGAAGUAAAACACCACGGUUGUACAGUGUCUAUUAAAACGAAGUUCUCUACAGAGGAAGCUACAGUAUCCUGAAGACUCAACAGAGGAUUGAGCAUCA
# B4: chr1:45868982:45868983:+_ENSMUSG00000025995_ENSMUST00000027139|mus_mus|motif|central (ssRNA)
# RNA: GGGAGUUCUACAGUCCGACGAUCAGAAGUACAGAACAAAUCUCCUGCAGGUGAGACAGAGAUGUGCUCAAUAGAAGAUCCGGAUCGAGGAAGAAACUCUUUGUUCUUCUCUGAUCCAUCUCGCCACUCCACAAGCACACACUCCAACAGAGGAUUGAGCAUCA
# B5: chr3:176767854:176767855:-_ENSG00000177565_ENST00000430069|hu_hu|hu_hu_hu_mus_False|8_98 (ssRNA)
# RNA: GGGAGUUCUACAGUCCGACGAUCGACAUCCUUGUUACUUGGAACAUCCUGCCCUCCUUCCCGUAUGCAGUGUCUAAGCACGAGCUGCGUAGGGCCACUCGUGCUGUUCUCACUGAGGUUCCAGAUUCUUGCUGUUGAGUCUCCCAACAGAGGAUUGAGCAUCA
# B6: 5490517_5492531_93_5pUTR_ENSMUSG00000056201_ENSMUST00000116560|mouse|control|control (ssRNA)
# RNA: GGGAGUUCUACAGUCCGACGAUCUUGAUGACACCAUCAGAGACAGCCACACCAGAGGCCAUGUUUCCGGAAACGAAAGGGAGACAGAAAGAGCAACUGAAGACCUGAGCCGCCGCAGCUGCUGCCGGGAUCCGACUGAACGCGCAACAGAGGAUUGAGCAUCA
# B7: chr1:155290277:155290278:+_ENSG00000160752_ENST00000447866|hu_mus|FALSE|FALSE (ssRNA)
# RNA: GGGAGUUCUACAGUCCGACGAUCGCACUGCUCUAUGAGACUCUUGAGGCGGUUGUAACUGUCUUCCUCAUACUUGAAGAAAGCAGACUGCAGAUCCAGCGCCUCAUACAGUGCUUUCACCCGAGCCACUUUUUCUGGGUCCUUCAACAGAGGAUUGAGCAUCA
# B8: chr12:48362563:48362564:+_ENSG00000134291_ENST00000256686|hu_hu|hu_hu_hu_mus_False|1_18 (ssRNA)
# RNA: GGGAGUUCUACAGUCCGACGAUCUCCGUCAAGCCCUUCGAUAGACCCUUGCGGGGGAAACUGUAAUCACUUUGUAUGGGGAAGGAAAAGAAACGCCAAAAACUUUCCAAAAAGCGGUUCAAAAAGCAGGCGGGAGGUUGGGAACAACAGAGGAUUGAGCAUCA
# B9: chr8:71637431:71637432:+_ENSMUSG00000006273_ENSMUST00000006435|mus_mus|FALSE|FALSE (ssRNA)
# RNA: GGGAGUUCUACAGUCCGACGAUCUGCACAGAGUGGGGAGUCAUGGCUGCACCUGAGAACACACAGCGCAGAGACCCAAACAGCAGACAUGGUAGAGGCACACAGAAUACAGCCAAGAGCUCAAGCCAGGAAGGGACAGGAAUGCAACAGAGGAUUGAGCAUCA
# B10: chr4:148551591:148551592:-_ENSMUSG00000063077_ENSMUST00000060537|mus_hu|mus_mus_mus_hu_False|58_78 (ssRNA)
# RNA: GGGAGUUCUACAGUCCGACGAUCACCUGACAAAAUUAAAUAUCCCUGUAAAUUAGACAAGAAGCAGCAGGCAACAAAGUCUAUGCUUUGGAAUAUGUGCCAGGAAAAGUCAUCUUGUUUUUAGAUCUCAAGAGACAGUUCACACAACAGAGGAUUGAGCAUCA
# B11: chrX:20185780:20185781:-_ENSG00000177189_ENST00000379565|hu_hu|motif|central (ssRNA)
# RNA: GGGAGUUCUACAGUCCGACGAUCUUUAGUUAUAGUGAACAGGACAGCACUGGCCUCUCGUUCAGAGAAAAAUUUUUGUCGGAGAAUUUUAUCCAGCAAUUCACCUCCUUUCAUAAGUUCUGUUACUACAUACACAUACUUUCCCAACAGAGGAUUGAGCAUCA
# B12: chr5:128440902:128440903:+_ENSG00000066583_ENST00000173527|hu_mus|hu_hu_hu_mus_True|48_58 (ssRNA)
# RNA: GGGAGUUCUACAGUCCGACGAUCUUGAACGGUGCUGCCAAGUCCUUUGGGGUAUUGUUCCGUUAUGAUAACUGGAAUUCCUAAAAUCCGGGCCCCUUGCAACAGUCUCUGUCCCACACUAAUGAUGUCCCCAAAGUAUUUGAUCAACAGAGGAUUGAGCAUCA
# B13: 63327676_63327796_430_CDS_ENSMUSG00000030451_ENSMUST00000076226|mouse|control|control (ssRNA)
# RNA: GGGAGUUCUACAGUCCGACGAUCCUGCCUGCCCCACACCCAGCUUUCCAGGAUUGACUUGGCUCUAUACACAGGUGCAGGUGUCUCUUCUUCUUCCUUCUUCUCUUUGUCAUUAAGAUCUUCUUUCUUGGUUCCACUCUGAGCCAACAGAGGAUUGAGCAUCA
# B14: chr7:87838734:87838735:-_ENSG00000075142_ENST00000394641|hu_mus|FALSE|FALSE (ssRNA)
# RNA: GGGAGUUCUACAGUCCGACGAUCAUCUUCCCGCUGGUGCUGUAUCGCUUUGCAACUGAAUUCACAGUUUGGGGGCUCAACCUGAAUCCCAUAGUCGUCAGGGCCUUCUGUAGCUCCUGGGGAUCCACGGUGCCACUCCUAUCGCAACAGAGGAUUGAGCAUCA
# B15: 38519776_38571995_239_3pUTR_ENSG00000105738_ENST00000222345|human|control|control (ssRNA)
# RNA: GGGAGUUCUACAGUCCGACGAUCUGUCCUGGGGGCUCCAGACCGAGUGGCUCAGUAGCGCAGAGCAGGCAGUAGCUGUGGUCGCCCGCCAGCUGGAGGCAGCAAGGAUGUUGUCCUCGCCAUGCCUUAGUGCCUUCUAGACACCAACAGAGGAUUGAGCAUCA
# B16: chr22:19452774:19452775:-_ENSG00000070010_ENST00000399523|hu_hu|hu_hu_hu_mus_False|48_48 (ssRNA)
# RNA: GGGAGUUCUACAGUCCGACGAUCCUUCUCAUUGUAGUUGAUAGCAAUCACAUCUCCAGUCGUCAGACAGGCGAAGUUUCUCAAUGCGUUUUCUAAUACCGCUUUAGGGUUGGUAAUAUCCAGGAAGUCUGGGCUCUGAGGCUGCAACAGAGGAUUGAGCAUCA
# B17: chr17:33883638:33883639:-_ENSMUSG00000077450_ENSMUST00000057373|mus_hu|FALSE|FALSE (ssRNA)
# RNA: GGGAGUUCUACAGUCCGACGAUCGCAACAGCGCAGGGGCCACAGGGAGAAGAAGAGAUCGAGAGCUGGGGUUUGGCGUAAAUCUUACAAAGUGUAUAAAGAAUCUGUGUUUCUCUACAUUAACAAAAACCAAAGGCUACAAGACAACAGAGGAUUGAGCAUCA
# B18: 2899911_2900031_822_3pUTR_ENSG00000087274_ENST00000398129|human|control|control (ssRNA)
# RNA: GGGAGUUCUACAGUCCGACGAUCUCUGAAUCAAAACUUUUUCCUCUUCAUCAACCAGAAUGCCAUGGUAGUCAUGAUAAGCCACUUCUCCAAGGGAAAGCGCCUCCGGGGAGAUUGGCAAGAGGCCACAUUUCAUUGCAGAGACAACAGAGGAUUGAGCAUCA
# B19: chr11:47650564:47650565:-_ENSG00000109919_ENST00000530428|hu_mus|FALSE|FALSE (ssRNA)
# RNA: GGGAGUUCUACAGUCCGACGAUCAUAGGUAUUGAUGAGAUAGGCCAGUGAGUUACACAGCCACAAAGAAAUGAUGUCACCUAGGAGGCGAGGAAUGAGACCCGCAAAAAAUCCUACGAUGCCUUCUUCCCGGUAGAUGGUUACCAACAGAGGAUUGAGCAUCA
# B20: chr19:53703180:53703181:+_ENSMUSG00000024974_ENSMUST00000025930|mus_hu|motif|central (ssRNA)
# RNA: GGGAGUUCUACAGUCCGACGAUCAUUUUGAACAUGCUGGUUUAUUCCUUUUCGACGGAAGUGGUCUAGCACUUUGUUUAUGCUGUCGGUUCCAUUUAAAAUGGCCUUUCCUGUUGCUGCUCUAAGAAGUUGUUGCUUCUUUUCCAACAGAGGAUUGAGCAUCA
# B21: chr12:57883053:57883054:+_ENSG00000166986_ENST00000262027|hu_hu|motif|central (ssRNA)
# RNA: GGGAGUUCUACAGUCCGACGAUCAGUGAGGUCAUCUUGCUCCCAGCCAGAUAACAAAAAAAAAUAUCGGCAGAUUGCACGGGUGGAGAAGAGGUAGUUGCCGCUAUCCAGCUGCAAGACAGGGACCUUAGGCCGGGUCAGGAACAACAGAGGAUUGAGCAUCA
# B22: chr1:163117127:163117128:-_ENSG00000143248_ENST00000313961|hu_mus|hu_hu_hu_mus_False|68_88 (ssRNA)
# RNA: GGGAGUUCUACAGUCCGACGAUCUGCUACAAAGGAUGUAACUCAACACUCACAGGAACUUUUGGAAGCCUGGCUAAAUGACUACUUGAUUAGCUCCUUAUAAAAUUCAGAGCGCACAAAGCGGGGCAGAGAAUCCUUCUCCAUCAACAGAGGAUUGAGCAUCA
# Target: T1, UNK ZnF1-3
# Assay: nsRBNS (natural sequence RNA bind-n-seq); RBNS binding buffer (assumed for nsRBNS): 25 mM Tris pH 7.5, 150 mM KCl, 3 mM MgCl2, 0.01% Triton X-100, 500 ug/ml BSA, 20 U/ml SUPERase-In, 4 C; UNK is unkempt and MSI1 is Musashi-1; names of the RNAs are library labels; protein concentration not given here; high values mean tight binding
row,Binder,binding signal [enrichment R]
1,B1,0.93
2,B2,1.1
3,B3,0.49
4,B4,0.554
5,B5,0.559
6,B6,1.5
7,B7,0.424
8,B8,1.88
9,B9,2.25
10,B10,1.39
11,B11,1.07
12,B12,0.892
13,B13,0.677
14,B14,0.661
15,B15,0.548
16,B16,0.675
17,B17,1.82
18,B18,1.18
19,B19,1.38
20,B20,0.212
21,B21,1.97
22,B22,1.16
